Experimental findings from PMC10726135 are described below.

Some of the results follow. At the low end of the ranking the order means little. The protein was read in a cell extract, so binding may be indirect.

For this test, the target named is T1, HNF4alpha2 (COS-7 nuclear extract) (UniProt P41235).
T1 sequence: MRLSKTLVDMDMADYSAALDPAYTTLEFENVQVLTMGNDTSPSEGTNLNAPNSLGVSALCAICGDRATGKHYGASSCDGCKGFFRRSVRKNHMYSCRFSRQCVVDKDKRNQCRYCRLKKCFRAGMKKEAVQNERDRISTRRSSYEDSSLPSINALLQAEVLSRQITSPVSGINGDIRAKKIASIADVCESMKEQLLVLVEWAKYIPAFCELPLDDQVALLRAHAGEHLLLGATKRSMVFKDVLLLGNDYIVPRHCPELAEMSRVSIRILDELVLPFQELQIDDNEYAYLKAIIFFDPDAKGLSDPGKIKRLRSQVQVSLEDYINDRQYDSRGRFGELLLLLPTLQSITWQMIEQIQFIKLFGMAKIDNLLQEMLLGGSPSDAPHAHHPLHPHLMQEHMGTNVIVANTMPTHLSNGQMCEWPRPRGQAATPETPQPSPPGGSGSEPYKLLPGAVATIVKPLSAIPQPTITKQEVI
Put plainly: protein-binding microarray. Conditions: COS-7 nuclear extract on double-stranded Agilent 4x180k PBM; binding buffer, salt, pH and temperature not given; high values mean tight binding; double strand, one strand shown; sequences stand for … in …GCCTAGGGAGATTAGAGTATCGGTCGA
For the sequence CAGACAGCAGTCTGAGTAGGAAAGACTTGC, the binding signal (log2 normalized intensity) is -1.11.
The figure for TGCATGTGTTCACACCACACTCTCCTCCTG is -0.622; for CCCTCTGAGTGTTTGACCTTTCACCCAGAA it is 6.42; for GGCGGGTTCTGCCATCTCGCAGAAAGTGGC it is -0.149.
The result for CTAGCATTAGGACCTGTTTGTCTTGCTGGG reads 0.512; that for ATAGACTGTCCCTCAGTGTGGGACTTTGGT, 2.72; that for TGACTTTATCATTGGACTCTCTCATTCTGA, 2.
The figure for GCAGAAGGTGTTTCAGATGGACCAAAGGTC is 5.41; for CCTGGGTGCTCCCTCCCCCTGCATGAACCT it is 4.07; for GTTAGGGCCATTTGGTCTGTAGTGTTGCTC it is 1.51.
As for AGAACACAGTCATTTATTCACTTATTTGTT, the binding signal (log2 normalized intensity) is 0.626.
The result for GGAGTTGTCTGTCCAGTTCAGGAGTTATCA reads 1.19; that for TAAGCACCCAGATAAGTTATCCTTGTTCTA, -0.046.
The figure for GCTGGGATAACCGAGGCTGACAGCAGAGAG is -1.08; for GTCCAGTTGAATGATGGCGAGTGTGCAATT it is 0.58.
The result for AAGTTCATGGAAAGTTTCACTTTCTCTTAT reads -1.16.
For TTCCAGCAAAGAGATTAGGACACAGCAGAG, the binding signal (log2 normalized intensity) is -1.09.
The figure for TTTCCCTGGGGTCAATAGTTGTGTAAATAG is 2.07.
The result for TCGAACAGTTGGCCACCTTTGGCCGAAACT reads 2.15; that for GTCCTCCTGTGGCCACAGAGCGCCTAACTA, -1.13; that for TCGAAGGCCAAGGGATTTCAGTGCCCTCAT, 1.14.
The figure for ACACCAAGCAAGCTCTGCAATAGAGCCACA is -1.18.
As for AATACAGCACTCAAATGATCAAAGAAGCCC, the binding signal (log2 normalized intensity) is -1.16.
The result for TTTGATCAGCTGGTCCTTCAAGTGTGACCC reads 3.95; that for GGCTGTCTCAGTGGGTGGGAAAGGGTGCTC, 0.926; that for ATCCCTCGTAGGCAGGGCCAGATAAAGCAG, -1.13.
The figure for ACAGCACTTAGGGTTCAAAGGTTGTTGAGC is 6.05.
The result for TTAGGTGGACAGGGGTGTGTTGACCGATAA reads 1.59; that for ATAGCTGAAATTTGTATCTTGGGTTAGGCC, 1.24.
As for GTCTCAAAAAAAAAAAAAAGGCAGTCCTTA, the binding signal (log2 normalized intensity) was -1.07.
The figure for GCATCTTCAACTGTGTGAGCTGATCACACC is 0.214; for TTAGTGGAGTATAGGAACATGAACTGAGCA it is 0.379.
With CTGCTCAGGGTGGGGTCTCGCTGCTTCGGC, the binding signal (log2 normalized intensity) is -1.09.
The figure for CTCTGGCCCTTAAAGGCTTTTGCAAGAAAA is -1.04; for AACTTTCTTTTTGTTGTTAGAACAAAGTCC it is 4.02.
The result for GGCAGCCAGCTGGTTTGCCTCTCTTAGGTG reads -1.14; that for ACACATGATAAGATTTATCTCTCCAAGGTA, -1.19.
Regarding CAGAAGGCGCTGAACTTTGCCTTGTACACA, the binding signal (log2 normalized intensity) is 3.65.
The result for AGCAGCTAGCAAATACAAGGACACTGAAAG reads -1.29; that for AATCCTCAGCCTTCTCCGCGGCGGGCCCTC, -1.18.
Take TATATTGGATAGTGCCTTTTCTAATATCTA: the binding signal (log2 normalized intensity) turned out to be 0.877.
The figure for TAGGAGACTGTCTTAGGAAAGAACAGGTCA is 1.14.
The figure for TAACGACCTTTGGGCTAAAAAGGAAGCTGT is 1.84.
The figure for TGGAGAAAGCAGCCAACCAGAGGCTGAAGT is -1.07.
As for ATAAAGAACGCTCACAGAAAGAAGAGACAG, the binding signal (log2 normalized intensity) was -1.05.
The figure for GTCTCTCTCTCATGCTATGCTCTCTCTCCA is 0.812; for CCTTTCCCTTCTTCTCCTCCCAACAGGTAT it is 2.48.
Consider TGCTCCTGCTTGCTGGCTTTCCCACCCATG, for which the binding signal (log2 normalized intensity) amounted to 1.34.
As for CAGCATGGTATGTGGCTTGCCGCATTCCCA, the binding signal (log2 normalized intensity) is -1.1.
The figure for TCTACTTGGTGGGAGGAGGGGGGAGGGTCG is -1.26; for TTTCTCTGCACACACTCACAGAACACAGTG it is -1.12.
In the case of AGAACTGGTCCGCCTTCATTCCTAGCCCCA, the binding signal (log2 normalized intensity) was found to be 2.37.
ATTTGACCCTTGGCCAGGTGCAGTGGCTCA: the binding signal (log2 normalized intensity) turned out to be 2.99.
The result for TCTGGTAAACAGCTGACAATAAATTCCAGG reads -1.16; that for AATGTCTGCTGTTGCACCTCTTATCAAGCG, -1.09; that for CTTATAAATCTTCAACTGGAGGATAAAGTT, 1.15.
The result for TCCTATTCGGTGCTGACCTTTGTTCACATT reads 5.89.
The result for GCTCACTTGGGGGTGGGGTGCTGCCTTTCC reads 0.498; that for CATCATCTCAGGGAGTGCAAACTTCTTTGA, 0.898; that for TTAGGGAGGGGCCAGGACAAAGGTCCTGTG, 1.38.
Consider TGCCTAAATCCAAAGGGCATCAGCCCCAAT, for which the binding signal (log2 normalized intensity) was -0.554.
The figure for CTTCAGCATCTTCAACTGTGTGAGCTGATC is 1.61.
With GCTCTGTTTTCTGACGCAACAGAAAACTCA, the binding signal (log2 normalized intensity) was -1.18.
As for TAGAACAGGGCTTTAATTACCTGTTCTAAG, the binding signal (log2 normalized intensity) is -1.18.
With AAAGGTCAGTCCCGCAGTGAGGGACAAGGC, the binding signal (log2 normalized intensity) is -1.13.
The result for AGACTTTTAAGTGGGGTCAAAGGGTACAAA reads 5.06.
The result for CTAGCAAATACAAGGACACTGAAAGGCATT reads -1.12.
The result for TTCATAATTACCATTCTTGAGGACAGGCCA reads 0.321.
Regarding GACCTGCAAACAGCACTCTCTGATTACACA, the binding signal (log2 normalized intensity) is -1.06.
The result for CTTCAGATGCCATGTCTAAAGGCTGTGTCG reads 1.99; that for GTCCCTGCCCTTTGTCCAGGGTGAGAGGGA, 1.39; that for AGGTTGTACTATGACCCAAACTTCACAAAA, 2.07.
